These are yes or no findings as the source states them, for the method shown. For part of these data: Binding seen in cells or lysates may run through a third protein. Some entries that bind do so weakly or less than the wild type. For part of these data: Sequences can lack the tags named with a protein.
T1: FHIP1B tagged at the carboxy terminus with BioID2 and 3xFLAG (human) (UniProt Q8N612)
T1 sequence: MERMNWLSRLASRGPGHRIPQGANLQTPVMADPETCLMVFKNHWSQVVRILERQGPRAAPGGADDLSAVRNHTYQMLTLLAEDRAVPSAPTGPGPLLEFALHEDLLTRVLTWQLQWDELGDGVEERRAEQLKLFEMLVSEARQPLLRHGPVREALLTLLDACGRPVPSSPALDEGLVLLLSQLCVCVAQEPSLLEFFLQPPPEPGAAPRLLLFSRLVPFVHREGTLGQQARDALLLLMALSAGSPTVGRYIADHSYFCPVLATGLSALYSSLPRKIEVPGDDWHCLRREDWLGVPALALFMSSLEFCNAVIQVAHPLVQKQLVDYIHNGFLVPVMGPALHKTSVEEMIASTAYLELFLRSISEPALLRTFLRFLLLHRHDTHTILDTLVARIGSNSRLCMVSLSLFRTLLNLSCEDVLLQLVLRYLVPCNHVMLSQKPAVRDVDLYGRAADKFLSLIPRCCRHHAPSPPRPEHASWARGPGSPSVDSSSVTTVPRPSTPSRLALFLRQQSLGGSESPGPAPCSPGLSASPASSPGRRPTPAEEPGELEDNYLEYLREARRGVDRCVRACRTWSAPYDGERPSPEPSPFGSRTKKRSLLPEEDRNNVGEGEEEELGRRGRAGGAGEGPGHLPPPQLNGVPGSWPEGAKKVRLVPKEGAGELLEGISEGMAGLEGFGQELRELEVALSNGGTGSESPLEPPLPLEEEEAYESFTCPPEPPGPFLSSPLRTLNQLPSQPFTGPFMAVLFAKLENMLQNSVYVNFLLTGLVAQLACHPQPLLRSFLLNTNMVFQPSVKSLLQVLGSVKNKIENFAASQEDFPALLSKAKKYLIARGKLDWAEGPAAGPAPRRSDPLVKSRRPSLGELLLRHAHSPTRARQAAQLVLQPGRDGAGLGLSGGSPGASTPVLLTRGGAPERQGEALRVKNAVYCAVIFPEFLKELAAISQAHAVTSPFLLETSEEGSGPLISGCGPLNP

Chains of the proteins cited; added tags and fusions are not shown.
UniProt Q86V87: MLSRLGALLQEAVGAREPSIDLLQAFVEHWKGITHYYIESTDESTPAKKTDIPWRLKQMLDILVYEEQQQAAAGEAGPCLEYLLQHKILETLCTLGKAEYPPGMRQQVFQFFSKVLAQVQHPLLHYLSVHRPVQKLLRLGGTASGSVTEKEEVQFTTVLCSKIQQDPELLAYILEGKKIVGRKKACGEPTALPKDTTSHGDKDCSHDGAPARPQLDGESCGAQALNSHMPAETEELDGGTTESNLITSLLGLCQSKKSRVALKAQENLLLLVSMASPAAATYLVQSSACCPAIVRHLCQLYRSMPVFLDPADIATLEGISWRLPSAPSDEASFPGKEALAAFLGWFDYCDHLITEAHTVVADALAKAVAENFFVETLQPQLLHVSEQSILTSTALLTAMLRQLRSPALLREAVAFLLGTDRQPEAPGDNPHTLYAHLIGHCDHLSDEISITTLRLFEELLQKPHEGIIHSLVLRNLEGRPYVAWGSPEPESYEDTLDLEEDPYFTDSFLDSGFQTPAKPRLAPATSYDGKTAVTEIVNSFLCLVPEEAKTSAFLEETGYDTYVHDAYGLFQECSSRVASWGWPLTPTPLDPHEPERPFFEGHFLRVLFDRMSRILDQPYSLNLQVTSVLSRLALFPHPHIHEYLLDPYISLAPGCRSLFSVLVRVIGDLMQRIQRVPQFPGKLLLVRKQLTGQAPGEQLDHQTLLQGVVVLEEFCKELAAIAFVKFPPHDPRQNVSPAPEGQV

T2: purified FHIP1B-HaloTag (FHIP1B-HaloTag-TEV-ZZ) (human) (UniProt Q8N612)
T2 sequence (chain, Alexa-660 on the HaloTag (motility assays and copurification with FTS)): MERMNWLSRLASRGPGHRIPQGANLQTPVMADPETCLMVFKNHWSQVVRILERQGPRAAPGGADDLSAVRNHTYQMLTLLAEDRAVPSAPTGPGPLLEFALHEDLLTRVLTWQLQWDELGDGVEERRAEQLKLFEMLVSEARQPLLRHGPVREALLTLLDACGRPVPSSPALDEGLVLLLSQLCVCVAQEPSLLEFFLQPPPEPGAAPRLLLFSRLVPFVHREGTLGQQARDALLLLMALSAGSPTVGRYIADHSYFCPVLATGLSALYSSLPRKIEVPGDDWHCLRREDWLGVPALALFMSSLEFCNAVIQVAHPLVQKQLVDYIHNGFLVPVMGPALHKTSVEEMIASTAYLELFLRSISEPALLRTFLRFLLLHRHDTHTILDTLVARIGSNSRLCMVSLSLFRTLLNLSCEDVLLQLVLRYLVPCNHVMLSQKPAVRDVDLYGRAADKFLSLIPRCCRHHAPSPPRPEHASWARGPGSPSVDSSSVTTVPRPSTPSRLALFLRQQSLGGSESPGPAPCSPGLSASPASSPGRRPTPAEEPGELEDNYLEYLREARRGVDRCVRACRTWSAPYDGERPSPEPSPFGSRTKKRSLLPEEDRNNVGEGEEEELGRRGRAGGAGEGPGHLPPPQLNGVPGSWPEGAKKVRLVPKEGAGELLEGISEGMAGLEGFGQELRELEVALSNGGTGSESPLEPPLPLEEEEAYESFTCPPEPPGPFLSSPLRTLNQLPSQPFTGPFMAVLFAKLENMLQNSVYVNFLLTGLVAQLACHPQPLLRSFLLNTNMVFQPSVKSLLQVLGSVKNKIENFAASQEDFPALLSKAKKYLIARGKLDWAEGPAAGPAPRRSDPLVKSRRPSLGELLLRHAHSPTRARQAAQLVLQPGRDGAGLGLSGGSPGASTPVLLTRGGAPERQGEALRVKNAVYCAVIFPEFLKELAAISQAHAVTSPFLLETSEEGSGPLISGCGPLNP

T3: FHIP1B tagged at the carboxy terminus with BioID2 and 3xFLAG (human), Q8N612
T3 chain: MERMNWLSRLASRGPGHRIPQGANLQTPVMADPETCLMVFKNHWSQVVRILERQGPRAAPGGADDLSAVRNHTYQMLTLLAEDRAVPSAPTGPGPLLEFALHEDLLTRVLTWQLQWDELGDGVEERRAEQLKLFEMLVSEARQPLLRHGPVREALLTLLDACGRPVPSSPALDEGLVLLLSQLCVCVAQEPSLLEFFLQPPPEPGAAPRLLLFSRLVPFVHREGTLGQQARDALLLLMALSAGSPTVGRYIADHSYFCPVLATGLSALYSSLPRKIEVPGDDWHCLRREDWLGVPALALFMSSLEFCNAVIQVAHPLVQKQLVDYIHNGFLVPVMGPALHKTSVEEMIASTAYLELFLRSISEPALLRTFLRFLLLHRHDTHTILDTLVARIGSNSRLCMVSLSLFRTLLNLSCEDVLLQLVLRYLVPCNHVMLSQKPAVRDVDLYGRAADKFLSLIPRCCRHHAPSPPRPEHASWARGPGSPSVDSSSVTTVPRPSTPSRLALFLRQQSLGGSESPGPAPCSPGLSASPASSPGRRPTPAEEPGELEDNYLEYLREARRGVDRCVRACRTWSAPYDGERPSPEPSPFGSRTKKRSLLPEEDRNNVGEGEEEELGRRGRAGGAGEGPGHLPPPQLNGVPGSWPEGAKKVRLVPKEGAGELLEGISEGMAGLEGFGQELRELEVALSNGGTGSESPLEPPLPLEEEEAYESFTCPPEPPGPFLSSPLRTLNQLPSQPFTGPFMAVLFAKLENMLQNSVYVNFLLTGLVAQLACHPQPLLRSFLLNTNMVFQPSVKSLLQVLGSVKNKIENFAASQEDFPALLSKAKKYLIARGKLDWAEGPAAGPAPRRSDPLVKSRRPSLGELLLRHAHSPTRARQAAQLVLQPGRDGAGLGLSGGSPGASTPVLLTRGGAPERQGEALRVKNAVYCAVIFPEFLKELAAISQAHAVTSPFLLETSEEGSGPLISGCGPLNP

B1: Hook3, endogenous in 293T cells (protein, UniProt Q86VS8 1-718)
chain: MFSVESLERAELCESLLTWIQTFNVDAPCQTVEDLTNGVVMAQVLQKIDPAYFDENWLNRIKTEVGDNWRLKISNLKKILKGILDYNHEILGQQINDFTLPDVNLIGEHSDAAELGRMLQLILGCAVNCEQKQEYIQAIMMMEESVQHVVMTAIQELMSKESPVSAGNDAYVDLDRQLKKTTEELNEALSAKEEIAQRCHELDMQVAALQEEKSSLLAENQVLMERLNQSDSIEDPNSPAGRRHLQLQTQLEQLQEETFRLEAAKDDYRIRCEELEKEISELRQQNDELTTLADEAQSLKDEIDVLRHSSDKVSKLEGQVESYKKKLEDLGDLRRQVKLLEEKNTMYMQNTVSLEEELRKANAARSQLETYKRQVVELQNRLSEESKKADKLDFEYKRLKEKVDSLQKEKDRLRTERDSLKETIEELRCVQAQEGQLTTQGLMPLGSQESSDSLAAEIVTPEIREKLIRLQHENKMLKLNQEGSDNEKIALLQSLLDDANLRKNELETENRLVNQRLLEVQSQVEELQKSLQDQGSKAEDSVLLKKKLEEHLEKLHEANNELQKKRAIIEDLEPRFNNSSLKIEELQEALRKKEEEMKQMEERYKKYLEKAKSVIRTLDPKQNQGAAPEIQALKNQLQERDRLFHSLEKEYEKTKSQREMEEKYIVSAWYNMGMTLHKKAAEDRLASTGSGQSFLARQRQATSSRRSYPGHVQPATAR
B2: Hook2, endogenous in 293T cells (protein, UniProt Q96ED9 1-719)
chain: MSVDKAELCGSLLTWLQTFHVPSPCASPQDLSSGLAVAYVLNQIDPSWFNEAWLQGISEDPGPNWKLKVSNLKMVLRSLVEYSQDVLAHPVSEEHLPDVSLIGEFSDPAELGKLLQLVLGCAISCEKKQDHIQRIMTLEESVQHVVMEAIQELMTKDTPDSLSPETYGNFDSQSRRYYFLSEEAEEGDELQQRCLDLERQLMLLSEEKQSLAQENAGLRERMGRPEGEGTPGLTAKKLLLLQSQLEQLQEENFRLESGREDERLRCAELEREVAELQHRNQALTSLAQEAQALKDEMDELRQSSERAGQLEATLTSCRRRLGELRELRRQVRQLEERNAGHAERTRQLEDELRRAGSLRAQLEAQRRQVQELQGQRQEEAMKAEKWLFECRNLEEKYESVTKEKERLLAERDSLREANEELRCAQLQPRGLTQADPSLDPTSTPVDNLAAEILPAELRETLLRLQLENKRLCRQEAADRERQEELQRHLEDANRARHGLETQHRLNQQQLSELRAQVEDLQKALQEQGGKTEDAISILLKRKLEEHLQKLHEADLELQRKREYIEELEPPTDSSTARRIEELQHNLQKKDADLRAMEERYRRYVDKARMVMQTMEPKQRPAAGAPPELHSLRTQLRERDVRIRHLEMDFEKSRSQREQEEKLLISAWYNMGMALQQRAGEERAPAHAQSFLAQQRLATNSRRGPLGRLASLNLRPTDKH
B3: purified 3XFLAG-SNAP-FTS (protein, UniProt Q9H8T0 1-292)
chain: MNPFWSMSTSSVRKRSEGEEKTLTGDVKTSPPRTAPKKQLPSIPKNALPITKPTSPAPAAQSTNGTHASYGPFYLEYSLLAEFTLVVKQKLPGVYVQPSYRSALMWFGVIFIRHGLYQDGVFKFTVYIPDNYPDGDCPRLVFDIPVFHPLVDPTSGELDVKRAFAKWRRNHNHIWQVLMYARRVFYKIDTASPLNPEAAVLYEKDIQLFKSKVVDSVKVCTARLFDQPKIEDPYAISFSPWNPSVHDEAREKMLTQKKPEEQHNKSVHVAGLSWVKPGSVQPFSKEEKTVAT
B4: Hook2, endogenous in 293T cells, Q96ED9 1-719 (protein)
chain: MSVDKAELCGSLLTWLQTFHVPSPCASPQDLSSGLAVAYVLNQIDPSWFNEAWLQGISEDPGPNWKLKVSNLKMVLRSLVEYSQDVLAHPVSEEHLPDVSLIGEFSDPAELGKLLQLVLGCAISCEKKQDHIQRIMTLEESVQHVVMEAIQELMTKDTPDSLSPETYGNFDSQSRRYYFLSEEAEEGDELQQRCLDLERQLMLLSEEKQSLAQENAGLRERMGRPEGEGTPGLTAKKLLLLQSQLEQLQEENFRLESGREDERLRCAELEREVAELQHRNQALTSLAQEAQALKDEMDELRQSSERAGQLEATLTSCRRRLGELRELRRQVRQLEERNAGHAERTRQLEDELRRAGSLRAQLEAQRRQVQELQGQRQEEAMKAEKWLFECRNLEEKYESVTKEKERLLAERDSLREANEELRCAQLQPRGLTQADPSLDPTSTPVDNLAAEILPAELRETLLRLQLENKRLCRQEAADRERQEELQRHLEDANRARHGLETQHRLNQQQLSELRAQVEDLQKALQEQGGKTEDAISILLKRKLEEHLQKLHEADLELQRKREYIEELEPPTDSSTARRIEELQHNLQKKDADLRAMEERYRRYVDKARMVMQTMEPKQRPAAGAPPELHSLRTQLRERDVRIRHLEMDFEKSRSQREQEEKLLISAWYNMGMALQQRAGEERAPAHAQSFLAQQRLATNSRRGPLGRLASLNLRPTDKH

Assays:
[1] = biological target: FHIP2A tagged at the carboxy terminus with BioID2 and 3xFLAG (human) (UniProt Q5W0V3); assay: co-IP; FLAG affinity resin IP of FHIP-BioID2-3xFLAG baits from stable 293T cell lines; immunoblots with anti-Hook1, anti-Hook2, anti-Hook3; BioID2-3xFLAG as control
[2] = biological target: FHIP1A tagged at the carboxy terminus with BioID2 and 3xFLAG (human) (UniProt Q05DH4); assay: as above
[3] = biological target: T1, FHIP1B tagged at the carboxy terminus with BioID2 and 3xFLAG (human); assay: as above
[4] = biological target: FHIP2B tagged at the carboxy terminus with BioID2 and 3xFLAG (human) (UniProt Q86V87); assay: as above
[5] = biological target: T2, purified FHIP1B-HaloTag (FHIP1B-HaloTag-TEV-ZZ) (human); assay: SEC; FHIP1B and FTS co-expressed in Sf9; IgG beads, TEV cleavage, Superdex 200 in 25 mM HEPES pH 7.4, 150 mM KCl, 1 mM DTT; coelution in the peak fractions
[6] = biological target: T3, FHIP1B tagged at the carboxy terminus …; assay: co-IP; FLAG affinity resin IP of FHIP-BioID2-3xFLAG baits from stable 293T cell lines; immunoblots with anti-Hook1, anti-Hook2, anti-Hook3; BioID2-3xFLAG as control; conditions: remark: other sources report otherwise

Binder	binding [1]	binding [2]	binding [3]	binding [4]	binding [5]	binding [6]
B1	binds weakly	binds	binds	binds		
B2	binds	no binding		binds		
B3					binds	
B4						no binding

Source: article PMC8730729
